According to the supplement of paper PMC11417369:
The other results are listed elsewhere or left out.

Test system: PfAP2-HC AP2 domain (GST-tagged)
Assay: gcPBM binding intensity (ln(normalized median fluorescence intensity)); higher = stronger DNA binding
Method in brief: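 DNA-binding domains from P. falciparum, fused to GST and produced in E. coli, were put on an Agilent 4 × 180k double-stranded probe array for 1 h in 1× PBS holding 1% milk, 0.2 mg/ml BSA, 0.5% salmon testes DNA and 0.03% Triton X-100. Probes were primer-extended, 36 bp long and drawn from intergenic genomic regions, with negative controls included. After Alexa488 anti-GST antibody detection and a 488 nm scan, binding intensity was set as the highest Masliner-normalised natural-log median intensity across replicate spots of either probe orientation.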

| Sequence | gcPBM binding intensity (ln) |
| --- | --- |
| ATTATACATATATAAGTGCAATAATGTTTTTTCCTT | 9.58 |
| AAGGTATATATAACTACACACTTATATATAATCTAA [CACACA_site92] | 9.75 |
| ATTTATTTATTTATATGTACATATTTAAAGAGTTCA [XGTACX_site7631] | 9.57 |
| ATATATATATATATATGTACTAAGAATTCTTTAAAA [XGTACX_site8476] | 9.57 |
| TTACTTTTAACAAATGTGCGCAGTTATCACACAGAC | 9.67 |
| TATATTTTGTTCTGTTGTACTAAAAAAATCTTTATA [XGTACX_site8372] | 9.5 |
| ACAAAACAAAAAAACTCACACATATACGGCATGTCA [CACACA_site5608] | 10.3 |
| TAAAAAAATATATATACATGCATAGAAAAAAAAAAA [TGCATGCA_site552] | 9.73 |
| TAATAATAAATTGGTTGTACAACCTTATACAGAATA [XGTACX_site2592] | 9.57 |
| ACACAAAAAATAAAAATATATATATATTATATATAT [CACACA_negctrl_site1489] | 9.75 |
| TTTTAAACAAAAATTTGTACACAATAATTAAATATA [XGTACX_site6755] | 9.43 |
| ATTTAATTTTTTTTTTTTTTTTTTCAATCCCCTTTT [CACACA_negctrl_site1013] | 9.2 |
| CATTTTAAAGAAAATACACACAAAAATAAATATATA [CACACA_site1395] | 9.83 |
| TTTTTTTATTAAAAATGTACAAAAATGAAAAAATAA [XGTACX_site8279] | 9.49 |
| CATATAATTTTATGGGTGCATTTTTTTGTAAGACCA | 9.49 |
| TTAAAAAAAAAAAGGTGTACTATAATTTAATATCAC [XGTACX_site6316] | 9.54 |
| TATATTTACGTATGTCGAACGTTATTTTGAACAACC [CACACA_negctrl_site1261] | 9.52 |
| AATATATAATTTTATAGTACATAATAAAAGAACAGG [XGTACX_site724] | 9.88 |
| TTATATTATGCTTGAATGCACTTTGAAGCACAATCT [GTGCAC_site9789] | 9.45 |
| TTTAATTTTTTTTAAACACACACATTACATTCAAAA [CACACA_site7926] | 9.82 |
| TATTCAACATAATATGCACACAAAAATTATGGAACG [CACACA_site8660] | 9.92 |
| ATCACATAAAATATGAATATATATTTTATATATATA [CACACA_negctrl_site340] | 9.53 |

| Sequence | gcPBM binding intensity (ln) |
| --- | --- |
| CGTTTATATAGTGATGCATGCATTGTTAACATGGTT [TGCATGCA_site418] | 9.6 |
| TTTATACACAAAAAATGTACATATATATAATGAATT [XGTACX_site1195] | 9.64 |
| TGTATGTCTTTATTTTGTACACAATATAAAAAATTA [XGTACX_site5441] | 9.6 |
| CGCACAAAAATATACACACACACATATATATTTATT [CACACA_site3645] | 10.4 |
| AAGGATGATACAACTTGTACATATTTGCTTAATATA [XGTACX_site764] | 9.64 |
| ATATAAATATATTGCACACACAATTATTATTATTAT [CACACA_site7147] | 10 |
| CATGTGCATATTAAATGTACATATATACATATATAC [XGTACX_site857] | 9.6 |
| ATATAGGTATTTAATACACACAAAACTTTCATTCCA [CACACA_site7627] | 9.91 |
| AAAGCTAATATTATATGTACTTATATATTTATATAT [XGTACX_site4474] | 9.76 |
| ATATAAATCTACACCGCACACAAAAACAACAAATAT [CACACA_site2506] | 10.5 |
| AAATAAATGAAACACACACACACAAAAAAAAAAAAC [CACACA_site2625] | 10.9 |
| TATAATGTTAAATAATGTACATATTTTTTTTTTTTT [XGTACX_site4721] | 9.4 |
| AACAAATTTTTTTTTCCTTTTTTTTTTTTACTTCAT [CACACA_negctrl_site1214] | 9.53 |
| ATAAACAAAGTTAAATGTACAAAGGGGTAAAAAAAA [XGTACX_site83] | 9.86 |
| ACACAATTGAAATAGTGTACAAAATGTTGTTACATA [XGTACX_site8671] | 9.85 |
| TTATTAACCAAACGCACATGCAAAATATATTATATA [TGCATGCA_site915] | 9.59 |
| AAATAAATAATATGTAAACACACAAAAAATAAAAAT [CACACA_site8307] | 10.3 |
| TTTTTTTTTCGGAAAAGTACAAAACTTTTTTATAAT [XGTACX_site4670] | 9.42 |
| TATATATCAATATGCACACACAAGAAGTAATTATAA [CACACA_site7487] | 10.5 |
| TAAAAAGTATATAAGAGTACACATATTTATAAATAT [XGTACX_site3084] | 9.73 |
| AGACTTTGTACAAACACACACATGAGCACAATATTA [CACACA_site6755] | 10.3 |
| AACAAAATTGAAGGAACACACATACAGATATATATA [CACACA_site4264] | 10.3 |
